We go through two molecules from patent publication US20120258108A1 (AbbVie / Abbott, published 2012).

For test [1], the target named is T1, Recombinant Human VEGF 165 (human, UniProt P15692-4 27-191).
T1 sequence (looked up): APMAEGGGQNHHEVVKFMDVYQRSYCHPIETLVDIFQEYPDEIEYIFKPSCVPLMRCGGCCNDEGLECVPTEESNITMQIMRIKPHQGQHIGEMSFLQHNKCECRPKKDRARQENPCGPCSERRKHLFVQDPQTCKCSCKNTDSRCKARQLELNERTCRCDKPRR
As to the kind of experiment: SPR (BIACORE). Here is the method:
(§1) The BIACORE assay (Biacore, Inc, Piscataway, N.J.) determines the affinity of antibodies or DVD-Ig with kinetic measurements of on-rate and off-rate constants. Binding of antibodies or DVD-Ig to a target antigen (for example, a purified recombinant target antigen) was determined by surface plasmon resonance-based measurements with a Biacore® 1000 or 3000 instrument (Biacore® AB, Uppsala, Sweden) using running HBS-EP (10 mM HEPES [pH 7.4], 150 mM NaCl, 3 mM EDTA, and 0.005% surfactant P20) at 25° C. All chemicals were obtained from Biacore® AB (Uppsala, Sweden) or otherwise from a different source as described in the text. For example, approximately 5000 RU of goat anti-mouse IgG, (Fcγ), fragment specific polyclonal antibody (Pierce Biotechnology Inc, Rockford, Ill.) diluted in 10 mM sodium acetate (pH 4.5) is directly immobilized across a CM5 research grade biosensor chip using a standard amine coupling kit according to manufacturer's instructions and procedures at 25 μg/ml. Unreacted moieties on the biosensor surface are blocked with ethanolamine. Modified carboxymethyl dextran surface in flowcell 2 and 4 is used as a reaction surface. Unmodified carboxymethyl dextran without goat anti-mouse IgG in flow cell 1 and 3 is used as the reference surface. For kinetic analysis, rate equations derived from the 1:1 Langmuir binding model are fitted simultaneously to association and dissociation phases of all eight injections (using global fit analysis) with the use of Biaevaluation 4.0.1 software. Purified antibodies or DVD-Ig are diluted in HEPES-buffered saline for capture across goat anti-mouse IgG specific reaction surfaces. Antibodies or DVD-Ig to be captured as a ligand (25 μg/ml) are injected over reaction matrices at a flow rate of 5 μl/min. The association and dissociation rate constants, kₒₙ (M⁻¹ s⁻¹) and koff (s⁻¹) are determined under a continuous flow rate of 25 μl/min. Rate constants are derived by making kinetic binding measurements at different antigen concentrations ranging from 10-200 nM. The equilibrium dissociation constant (M) of the reaction between antibodies or DVD-Igs and the target antigen is then calculated from the kinetic rate constants by the following formula: KD=koff/kₒₙ. Binding is recorded as a function of time and kinetic rate constants are calculated.
(In general: SPR reads the build-up and loss of mass on a sensor chip optically.)

Another test concerns the target Recombinant Human DLL4 (human, UniProt Q9NR61 in part). Put plainly: SPR (BIACORE). How it is done:
as §1

Test [2] deals with T2, Recombinant Human TNFα/TNFSF1A (human, UniProt P01375 in part). Put plainly: cell-based or functional assay.
In test [3] the target is T2, Recombinant Human TNFα/TNFSF1A. Put plainly: SPR (BIACORE). Here is the method:
as §1

Recombinant Human DLL4, sequence (Q9NR61 27-524 limits assumed): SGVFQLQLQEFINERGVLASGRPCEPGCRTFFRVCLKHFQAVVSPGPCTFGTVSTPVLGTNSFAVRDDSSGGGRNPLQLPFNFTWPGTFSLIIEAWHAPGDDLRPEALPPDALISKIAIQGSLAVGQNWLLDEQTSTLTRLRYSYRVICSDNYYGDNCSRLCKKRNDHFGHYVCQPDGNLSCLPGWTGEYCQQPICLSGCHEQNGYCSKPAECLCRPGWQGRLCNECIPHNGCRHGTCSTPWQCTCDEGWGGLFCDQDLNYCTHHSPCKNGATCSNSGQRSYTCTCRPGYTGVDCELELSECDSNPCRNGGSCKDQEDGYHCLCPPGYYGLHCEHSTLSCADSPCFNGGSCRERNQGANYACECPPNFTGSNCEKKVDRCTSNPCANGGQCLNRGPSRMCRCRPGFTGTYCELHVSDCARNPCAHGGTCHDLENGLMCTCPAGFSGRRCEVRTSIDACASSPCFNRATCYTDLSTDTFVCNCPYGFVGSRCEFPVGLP
T2 sequence (P01375 77-233 limits assumed): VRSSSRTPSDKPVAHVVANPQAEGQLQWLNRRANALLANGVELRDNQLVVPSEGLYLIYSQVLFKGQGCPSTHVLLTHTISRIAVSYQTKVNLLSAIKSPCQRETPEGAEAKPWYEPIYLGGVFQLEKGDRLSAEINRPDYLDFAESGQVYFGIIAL

B1: DVD1717 (bispecific antibody, human IgG1, kappa)
heavy: EVQLVESGGGLVQPGGSLRLSCAVSGGSISSSSYYWGWIRQAPGKGLEWIGDIYYTGSTYYNPSLKSRVTISVDTSKNTFYLQMNSLRAEDTAVYYCARQALAMGGGSDKWGQGTLVTVSSASTKGPEVQLVESGGGLVQPGGSLRLSCAASGYTFTNYGMNWVRQAPGKGLEWVGWINTYTGEPTYAADFKRRFTFSLDTSKSTAYLQMNSLRAEDTAVYYCAKYPHYYGSSHWYFDVWGQGTLVTVSS[no letters for human IgG1 constant region]
light: DYQLTQSPSSLSASVGDRVTITCSGQRLGDKYASWYQQKPGKSPKLVIYEDSKRPSGIPSRFSGSNSGDDATLTISSLQPEDFATYYCQAWDRDTGVFGQGTKVEIKRTVAAPDIQMTQSPSSLSASVGDRVTITCSASQDISNYLNWYQQKPGKAPKVLIYFTSSLHSGVPSRFSGSGSGTDFTLTISSLQPEDFATYYCQQYSTVPWTFGQGTKVEIKRTVAAPSVFIFPPSDEQLKSGTASVVCLLNNFYPREAKVQWKVDNALQSGNSQESVTEQDSKDSTYSLSSTLTLSKADYEKHKVYACEVTHQGLSSPVTKSFNRGEC
notes: DVD-Ig
Broadly, the Kd is the concentration at which binding is half-saturated. As usually defined, the koff is the rate constant with which the complex falls apart. The kon is the second-order rate constant of association. Take B1: in test [1], the Kd came out at 0.023 nM, the koff came out at 2.1e-06 s⁻¹ and the kon came to 91000 M⁻¹ s⁻¹. For the same molecule, in the test with Recombinant Human DLL4, the equilibrium dissociation constant (Kd) came to 2.6 nM, the dissociation rate constant (koff) was 0.00015 s⁻¹ and the kon worked out at 56000 M⁻¹ s⁻¹.

B2: DVD1709 (bispecific antibody, human IgG1, kappa)
heavy: EVTLRESGPALVKPTQTLTLTCTASGYTFTKYWLGWIRQPPGKGLEWMGDIYPGYDYTHYNEKFKDRVTLSTDTSKSQAVLTMTNMDPVDTATYYCARSDGSSTYWGQGTTVTVSSASTKGPEVQLVQSGTEVKKPGESLKISCKASGFTFDDYAMHWVRQMPGKGLEWVSAITWNSGHIDYADSVEGQFTISRDNSFNTLFLQWSSLKASDTAMYYCAKVSYLSTASSLDYWGQGTMVTVSS[no letters for human IgG1 constant region]
light: DVVMTQSPDSLAVSLGERATINCTSSQNIVHSNGNTYLEWYQQKPGQSPKLLIYKVSNRFSGVPDRFSGSGSGTDFTLTISSLQAEDVAVYYCFQVSHVPYTFGGGTKVEIKRTVAAPEIVMTQSPATLSVSPGERATLSCRASQGIRNYLAWYQQKPGQAPRLLIYAASTLQSDVPARFSGSGSGTEFTLTISSLQSEDFAVYYCQRYNRAPYTFGQGTRLEIKRTVAAPSVFIFPPSDEQLKSGTASVVCLLNNFYPREAKVQWKVDNALQSGNSQESVTEQDSKDSTYSLSSTLTLSKADYEKHKVYACEVTHQGLSSPVTKSFNRGEC
notes: DVD-Ig; also called PGE2 (AB057) / TNF (AB058) DVD-Ig
In the case of B2, the “C-terminal VD TNFα Neutralization Assay EC50 nM (L929 cells)” value in test [2] was more than 500 nM. Also, in test [3], the Kd was determined as 22 nM, the koff was 0.00049 s⁻¹ and the kon came to 22000 M⁻¹ s⁻¹.
